# From article PMC7819943, “Rice protein-binding microarrays: a tool to detect cis-acting elements near promoter regions in rice”
# The other results are listed elsewhere or left out.
# Target: T1, OsWOX13 (Oryza sativa, UniProt Q5QMM3 1-267)
# T1 sequence: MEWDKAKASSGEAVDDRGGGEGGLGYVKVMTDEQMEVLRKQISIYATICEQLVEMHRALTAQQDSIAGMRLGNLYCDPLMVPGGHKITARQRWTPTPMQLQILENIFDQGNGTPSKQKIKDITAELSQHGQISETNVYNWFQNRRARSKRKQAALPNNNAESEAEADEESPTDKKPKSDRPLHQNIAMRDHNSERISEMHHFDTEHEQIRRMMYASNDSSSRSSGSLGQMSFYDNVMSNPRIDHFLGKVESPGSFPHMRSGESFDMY
# Assay: protein-binding microarray (RPBM); PBS, 2% BSA, 51.3 ng/ul salmon testes DNA, 50 uM zinc acetate, 200 nM TF, 25 C, 1 h; high values mean tight binding
# Conditions: protein: recombinant; tags: N-terminal polyhistidine and DsRed monomer fusion (pET32a); label: CyDye5-dUTP incorporated in the synthesized complementary strand; 3' TTTTT single-stranded linker to array surface; dsDNA, one strand shown
# Summary of the method: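 An Axon 4000B scanner gave the binding signal as per-feature fluorescence intensity in arbitrary units. This followed washing of a custom Agilent array that had been incubated for 1 h at 25 °C with 200 nM protein in PBS, 2% BSA, salmon testes DNA and 50 µM zinc acetate. The proteins were transcription factors fused at the N-terminus to polyhistidine and DsRed, expressed in E. coli BL21-CodonPlus and purified on Ni–NTA.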
row,Sequence,binding signal
1,ACCCCAGTAAATTACTAATTAACCCTTAATAATAAATGGTCGGAGTCACCTAGTGCAG,26000 fluorescence intensity (a.u.)
2,TTTGATTTGATTCGTGTGCTCCCCGCCGCCTTCGATCCCTCGGAGTCACCTAGTGCAG,43600 fluorescence intensity (a.u.)
3,TGCTATTGTTCCAATTAGATAAATGGTAATGACATATTTTCGGAGTCACCTAGTGCAG,3910 fluorescence intensity (a.u.)
4,GTGATTGGAACAAATAGATGTACTTTTGATAGCAAGGAACCGGAGTCACCTAGTGCAG,48700 fluorescence intensity (a.u.)
5,CTTTGACAGCCTGTCGCCTGTCTCGCACGCTGCTTGCGGCCGGAGTCACCTAGTGCAG,14800 fluorescence intensity (a.u.)
6,GTAGAAATAATTATATTGTGAGTGAGCTGAAATAAGAAACCGGAGTCACCTAGTGCAG,4870 fluorescence intensity (a.u.)
7,GCAAATTGAGAAGAATTAACGCCAAAAGGAGAACTTGATTCGGAGTCACCTAGTGCAG,17200 fluorescence intensity (a.u.)
8,TGAATTAGATTGGAGCTATTGAGGGAGTCAAAGTGGGTTTCGGAGTCACCTAGTGCAG,22500 fluorescence intensity (a.u.)
9,TTTTGATTGACAGCGGAAATTACTCGATATTGTTCTTCAACGGAGTCACCTAGTGCAG,64300 fluorescence intensity (a.u.)
10,AGCTAATTAATCCAGCTTACTTAATTAACCTAATTAATCACGGAGTCACCTAGTGCAG,26300 fluorescence intensity (a.u.)
11,ATATCAAATAATTAGAATTGATGATGTTTCGAATCCAGGTCGGAGTCACCTAGTGCAG,24800 fluorescence intensity (a.u.)
12,GATAGATTTCCTTAATGTATTCGGAAACTATTCGTACACGCGGAGTCACCTAGTGCAG,4880 fluorescence intensity (a.u.)
13,TCTTATTCTAATTGCCATGACATGATGCCACCAATGTCCACGGAGTCACCTAGTGCAG,16200 fluorescence intensity (a.u.)
14,CCACCACCAATCATGCCCATTGCAGGCTTCCACCGCCCGCCGGAGTCACCTAGTGCAG,4420 fluorescence intensity (a.u.)
15,GATAATTTGGTCATTGCTAAAATATTTGGGAAAAGTTAGCCGGAGTCACCTAGTGCAG,23700 fluorescence intensity (a.u.)
16,GTTATAGCGCATCTATCAATCGTACTAAATTTCATTGTCCCGGAGTCACCTAGTGCAG,3250 fluorescence intensity (a.u.)
17,CTCCATAATTATTAGAAGGACGTCCTCCAGCAACTCCGCCCGGAGTCACCTAGTGCAG,16900 fluorescence intensity (a.u.)
18,AAATGATTTCTGGCTAATTTGTTTCATTTGTAGCTGTTGACGGAGTCACCTAGTGCAG,26000 fluorescence intensity (a.u.)
19,TCACAGACAAATTAAAGCATACAGCAATTGATTCAGAGTACGGAGTCACCTAGTGCAG,4560 fluorescence intensity (a.u.)
20,TGGATTAATTAGGCTCAATAGATTCGTCTCACGAATTAGTCGGAGTCACCTAGTGCAG,36500 fluorescence intensity (a.u.)
21,TTACTAATTTTACTATTGTGGATAAATTTTAGACGTCCAACGGAGTCACCTAGTGCAG,7970 fluorescence intensity (a.u.)

row,Sequence,binding signal
1,ATTGATCAATCGATCAATCCCTCCTTCCCCATCCAATCCTCGGAGTCACCTAGTGCAG,4160 fluorescence intensity (a.u.)
2,AAAGATTTAATTATTACGAACACAACGGTGTAATTAGATCCGGAGTCACCTAGTGCAG,12300 fluorescence intensity (a.u.)
3,ATGATTATCAGAAAACCTAGACAACAGTATCCCGTTGGAACGGAGTCACCTAGTGCAG,7150 fluorescence intensity (a.u.)
4,ACTCACAGAACATAATTAGACATACATGTTAATTTGTTTCCGGAGTCACCTAGTGCAG,7860 fluorescence intensity (a.u.)
5,ATCAATCCAATAATATTAATTTTAGCAGATAAAGTTTAACCGGAGTCACCTAGTGCAG,4450 fluorescence intensity (a.u.)
6,ATCACAAAATTAGATAATCTATCGTATGTCCCGCCCCTAACGGAGTCACCTAGTGCAG,6800 fluorescence intensity (a.u.)
7,GTCAGTGACAATAATCCATCAAATTAATGTTATAGCTGTTCGGAGTCACCTAGTGCAG,3400 fluorescence intensity (a.u.)
8,ACATTGACTTGATGTATAATTTATTAATTTCATGCAGTTCCGGAGTCACCTAGTGCAG,16800 fluorescence intensity (a.u.)
9,ATAAATTACACTTTAAGTACTTTAAGTGATAAAACAACTCCGGAGTCACCTAGTGCAG,5130 fluorescence intensity (a.u.)
10,CTCGTGATTTGCCGGCTGCGTGGACGACTTCGCCTCTCTTCGGAGTCACCTAGTGCAG,28800 fluorescence intensity (a.u.)
11,GAAAAGCTAATTGGTCTCTGGTATTGATTCTGTGTGCCGACGGAGTCACCTAGTGCAG,20900 fluorescence intensity (a.u.)
12,GTTAATGGACTTTTAGTATATAATAGAAGATAGGTAAAGACGGAGTCACCTAGTGCAG,8400 fluorescence intensity (a.u.)
13,CTTATTTCTTAACCTGCAGTTAATTGCCTACCAGTAAGCACGGAGTCACCTAGTGCAG,16000 fluorescence intensity (a.u.)
14,GAGATTGATTGCTCTCCGCCAATAATCTTAGCTAGTTTTGCGGAGTCACCTAGTGCAG,41800 fluorescence intensity (a.u.)
15,ACCGGTTTTGACAGATTGGGGACCGGTTGTATCTGGTTTTCGGAGTCACCTAGTGCAG,18600 fluorescence intensity (a.u.)
16,GCCAGGATTGATCACACGGAGTGACTTTTCTCACTAGAGTCGGAGTCACCTAGTGCAG,23200 fluorescence intensity (a.u.)
17,ACTAATTGAGGCGACACCCCAATCATGGGCAAACCGCCACCGGAGTCACCTAGTGCAG,41300 fluorescence intensity (a.u.)
18,TGCTATAGTTATAACCAATAATTTATTCACTACATTTTGTCGGAGTCACCTAGTGCAG,5140 fluorescence intensity (a.u.)
19,AGATCTAATCATGAAAATGTGTTGTGGTACACCCCATATTCGGAGTCACCTAGTGCAG,3190 fluorescence intensity (a.u.)
20,TTCACAAATTGAACATAGAGTACCGTCTCACACGCTGCTCCGGAGTCACCTAGTGCAG,22100 fluorescence intensity (a.u.)
21,TTTGATATAATCAAATTCCACAGCGAACCGATATGTAACGCGGAGTCACCTAGTGCAG,7380 fluorescence intensity (a.u.)
